Test results published in PubChem BioAssay AID2147 (National Center for Advancing Translational Sciences (NCATS), 2009).
About 3,600 (1.6%) of roughly 230,000 compounds were called active. The shares of active, inactive and inconclusive entries below differ from those in the screen. Calls follow the shape of the dose curve; as a rule, active = well fitted inhibition curve with a large enough effect (not every such curve was filed as active); inconclusive = small, poorly fitted or top-dose-only effect, or another doubt; inactive = no such curve, though single readings can be large or run the other way. Potencies of inconclusive entries are doubtful fits and often do not repeat.

The compounds below were run against Lysine-specific demethylase 4E (Homo sapiens) (UniProt B2RXH2) (assay: qHTS Assay for Inhibitors of Human Jumonji Domain Containing 2E (JMJD2E)). Conditions: JMJD2E catalytic domain, FDH-coupled NADH fluorescence (FDH is formaldehyde dehydrogenase); series mostly up to 57.1 µM; activity change, negative = inhibition: at the top concentration.
Also: nearly all actives have a fitted effect of over 50% in size.
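For activity change, negative = inhibition in this document: 0% = wells with enzyme and -100% = buffer wells without enzyme.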
Potency is read from the fitted curve at half-maximal effect; tags tell the direction and shape of the fitted curve.

Chain of UniProt B2RXH2 (B2RXH2 whole entry, looked up, the tested form may be a part): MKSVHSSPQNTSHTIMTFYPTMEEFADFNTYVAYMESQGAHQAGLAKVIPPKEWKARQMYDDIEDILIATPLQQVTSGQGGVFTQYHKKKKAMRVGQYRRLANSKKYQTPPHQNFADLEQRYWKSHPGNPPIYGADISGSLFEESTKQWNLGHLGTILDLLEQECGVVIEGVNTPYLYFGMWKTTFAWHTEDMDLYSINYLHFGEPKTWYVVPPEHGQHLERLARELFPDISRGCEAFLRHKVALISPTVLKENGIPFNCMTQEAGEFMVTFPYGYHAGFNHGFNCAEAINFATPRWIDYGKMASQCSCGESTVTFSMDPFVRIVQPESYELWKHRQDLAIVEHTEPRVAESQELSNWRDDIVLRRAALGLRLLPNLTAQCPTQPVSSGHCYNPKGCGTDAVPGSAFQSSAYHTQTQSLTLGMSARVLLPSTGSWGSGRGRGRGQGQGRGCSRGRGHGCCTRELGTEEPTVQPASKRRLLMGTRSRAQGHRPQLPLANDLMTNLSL

Row | SMILES | Potency | activity change, negative = inhibition
1 | CCOC(=O)C1(CCOC)CCN(Cc2nc(-c3cccs3)oc2C)CC1 | inconclusive: 28.2 µM [inhibitor, single point] | –
2 | Oc1c(N=NC(=S)Nc2ccccc2F)c2ccccc2n1Cc1ccc(Cl)cc1 | – | inactive: -7.18%
3 | OC(CSc1ccccc1Cl)CN1CCN(c2ccccc2F)CC1 (configuration not stated) | inconclusive: 39.8 µM [inhibitor, single point] | –
4 | O=C(COc1ccc(C(=O)O)cc1)Nc1cccc(C(F)(F)F)c1 | – | inactive: 10.4%
5 | COc1ccc(C2NC(=O)NC(C)=C2C(C)=O)cc1 (configuration not stated) | inconclusive: 31.6 µM [inhibitor, single point] | –
6 | COc1ccc(C2=C(CC(=O)O)C(=O)CC2)cc1 | inconclusive: 6.31 µM [inhibitor, single point] | –
7 | c1ccc2oc(SCc3cn4ccccc4n3)nc2c1 | – | inactive: 2.8%
8 | CCOc1cc(/C=N/NC(=O)c2nn(C)cc2Br)ccc1OCc1ccccc1Cl | inconclusive: 35.5 µM [inhibitor, single point] | –
9 | N#Cc1c(-c2ccccc2F)cc(-c2cccnc2)nc1N | inconclusive: 31.6 µM [inhibitor, partial curve] | –
10 | O=C1C(N2CCOCC2)=C(n2nnc3ccccc32)C(=O)c2ccccc21 | inconclusive: 3.55 µM [inhibitor, single point] | –
11 | COc1ccc(Cc2noc(CN3CCCN(C4Cc5ccccc5C4)CC3)n2)cc1OC | – | inactive: -5.72%
12 | CCN(Cc1ccncc1)S(=O)(=O)c1ccc(C(C)=O)cc1 | – | inactive: -4.13%
13 | COc1ccc(OC)c2c(C)cc(N3CCN(C(=O)c4ccc(F)cc4)CC3)nc12 | inconclusive: 25.1 µM [inhibitor, partial curve] | –
14 | Clc1ccccc1Sc1ccc(-c2ccccn2)s1 | inconclusive: 31.6 µM [inhibitor, partial curve] | –
15 | COc1cc(OC)cc(C(=O)NC(=S)Nc2ccc(Cl)c(C(=O)O)c2)c1 | inconclusive: 39.8 µM [inhibitor, single point] | –
16 | CCc1nn2c(NCCOC)cc(C)nc2c1-c1ccc(F)cc1 | inconclusive: 28.2 µM [inhibitor, partial curve] | –
17 | CCCN1C(=O)C(NC(=O)c2ccncc2)(C(F)(F)F)C2=C1CC(C)(C)CC2=O (configuration not stated) | – | inactive: -1.44%
18 | CCOc1ccc(S(=O)(=O)NCC2CCCO2)c2cccnc12 (configuration not stated) | inconclusive: 31.6 µM [inhibitor, partial curve] | –
19 | CC(C)OC(=S)N/C(=N\S(=O)(=O)c1ccccc1)c1ccccc1 | – | inactive: 2.59%
20 | CSc1ccc(CN(C)Cc2nc3ccccc3c(=O)[nH]2)cc1 | – | inactive: 5.62%
21 | COC(=O)CN1C(=S)N(C)C(=O)/C1=C/c1cccs1 | inconclusive: 39.8 µM [inhibitor, single point] | –
22 | CC(C)c1cc(C(=O)O)c2cnn(C(C)C)c2n1 | inconclusive: 31.6 µM [inhibitor, single point] | –
23 | O=C(O)CCCNC(=O)CCCn1nnc2ccccc2c1=O | – | inactive: 3.07%
24 | Cc1ccc(-n2[nH]c(=O)c3cccnc32)cc1 | – | inactive: 6.97%

Row | SMILES | Potency | activity change, negative = inhibition
25 | CCOC(=O)c1[nH]cnc1C(=O)Nc1ccc(Cl)cc1 | inconclusive: 35.5 µM [inhibitor, single point] | –
26 | CCc1ccc(/C=C2\Oc3c(ccc(O)c3CN3CCN(C)CC3)C2=O)cc1 | inconclusive: 39.8 µM [inhibitor, single point] | –
27 | Cc1ccc(NC(=O)CSc2nc3ccccc3c(=O)n2CCCC(=O)N2CCCC2)cc1 | – | inactive: 6.38%
28 | CC(C)(C)N=C1NN=C(c2cc3ccccc3o2)CS1 | inconclusive: 28.2 µM [inhibitor, single point] | –
29 | CCCCn1c(SCC(=O)c2ccc(OCC)cc2)nc2cc(S(N)(=O)=O)ccc21 | – | inactive: 2.21%
30 | CCN(CC)NC(=O)Nc1ccccc1 | inconclusive: 35.5 µM [inhibitor, single point] | –
31 | Cc1cc(=O)oc2cc(NC(=O)C3CC(=O)N(Cc4ccccc4)C3)ccc12 (configuration not stated) | inconclusive: 28.2 µM [inhibitor, partial curve] | –
32 | CN(C)/C=C/C(=O)c1cnc(-c2cccc(Cl)c2)s1 | – | inactive: 2.35%
33 | O=C(CSc1nnc2ccccn12)Nc1cccc(-c2nc3ccccc3s2)c1 | inconclusive: 31.6 µM [inhibitor, single point] | –
34 | CCOC(=O)c1c(C)oc2c1c(C(c1cccnc1)N1CCOCC1)c(O)c1ccccc12 (configuration not stated) | inconclusive: 10 µM [inhibitor, partial curve] | –
35 | O=c1c2[nH]c3ccccc3c2ncn1CCC1=CCCCC1 | – | inactive: -19.3%
36 | COc1ccc2[nH]c(=O)c(CN(C(=O)C3CCCO3)c3ccc(C)cc3)cc2c1 (configuration not stated) | inconclusive: 31.6 µM [inhibitor, partial curve] | –
37 | CC(C)Cc1nc2ccc(N)cc2[nH]1 | active: 35.5 µM | –
38 | Cc1cc(OCCN2CCCCCC2)ccc1[N+](=O)[O-] | inconclusive: 20 µM [inhibitor, single point] | –
39 | NC(=O)CSc1cn(Cc2cccc(F)c2)c2ccccc12 | – | inactive: -18.6%
40 | CC(C)[C@@H]1C=C(C(=O)O)O[C@H](OCCCCO)C1 | inconclusive: 35.5 µM [inhibitor, single point] | –
41 | C=CCn1c(-c2cccn(Cc3ccc(Cl)cc3Cl)c2=O)n[nH]c1=S | – | inactive: -27.9%
42 | COc1ccc(C2CC(c3ccc4ccccc4c3OC(C)=O)=NN2C(=O)/C=C/c2ccccc2)cc1 (configuration not stated) | inconclusive: 28.2 µM [inhibitor, partial curve] | –
43 | O=C(CSCc1ccc(Cl)cc1)Nc1ccc(-c2nnc(-c3ccccc3)o2)cc1 | inconclusive: 0.794 µM [inhibitor, full curve] | –
44 | COc1ccc(-c2cc(C(=O)N3CCN(C(c4ccccc4)c4ccccc4)CC3)no2)cc1OC | inconclusive: 31.6 µM [inhibitor, single point] | –
45 | CCCC1=[N+](CC(=O)c2ccccc2)CCn2cccc21 | inconclusive: 22.4 µM [inhibitor, single point] | –
46 | CCCC(C(=O)NC1CCCC1)N(Cc1ccc2c(c1)OCO2)C(=O)c1snc(C(N)=O)c1N (configuration not stated) | inconclusive: 31.6 µM [inhibitor, single point] | –
47 | Cc1cc2cc(CN(Cc3cccs3)Cc3nnnn3CC3CCCO3)c(=O)[nH]c2cc1C (configuration not stated) | inconclusive: 39.8 µM [inhibitor, single point] | –
48 | NS(=O)(=O)c1ccc(N=Nc2c(=O)[nH]n3c(=O)c4c([nH]c23)CCCC4)cc1 | active: 28.2 µM | –

Row | SMILES | Potency | activity change, negative = inhibition
49 | Cc1[nH]c2ccccc2c1C1(O)C(=O)N(Cc2ccc3c(c2)OCO3)c2ccccc21 (configuration not stated) | inconclusive: 39.8 µM [inhibitor, single point] | –
50 | COc1ccc(N2C(C(C)=O)=NN(c3ccccc3)C2c2cccs2)cc1 (configuration not stated) | inconclusive: 20 µM [inhibitor, single point] | –
51 | Cc1c(NC(N)=O)c(=O)n(-c2ccccc2)n1C | inconclusive: 0.0056 µM [inhibitor, full curve, poor fit] | –
52 | COC(=O)c1nn(-c2nc(-c3cccc(OC)c3)cc(C(F)(F)F)n2)cc1[N+](=O)[O-] | inconclusive: 39.8 µM [inhibitor, single point] | –
53 | COc1ccc(CCNC(=O)COC(=O)c2cc(OC)c(OC)cc2OC)cc1OC | – | inactive: 12%
54 | Cc1ccc2[nH]c(=O)c(C(c3nnnn3C3CCCC3)N3CCCc4ccccc43)cc2c1 (configuration not stated) | inconclusive: 35.5 µM [inhibitor, single point] | –
55 | C=CCn1c(-c2c(C)nc3cc(C)ccn23)n[nH]c1=S | inconclusive: 35.5 µM [inhibitor, single point] | –
56 | Cc1ccc(C)n1-c1ccc(N2CCOCC2)cc1 | inconclusive: 39.8 µM [inhibitor, single point] | –
57 | Cc1ccc(NC(=O)NC2=NN(c3ccccc3)C(=O)/C2=C2/CCCN2C)cc1 | – | inactive: -6.18%
58 | COc1ccc(/C=C/c2nc(-c3ccccc3)cc(=O)[nH]2)cc1 | inconclusive: 35.5 µM [inhibitor, single point] | –
59 | CC(C)=C(C#N)c1nc2ccccc2s1 | – | inactive: 0.47%
60 | Clc1cccc(CN2COc3c(cc(Cl)c4cccnc34)C2)c1 | inconclusive: 28.2 µM [inhibitor, single point] | –
61 | O=C(COc1ccc([N+](=O)[O-])cc1Cl)NCC1CCCO1 (configuration not stated) | – | inactive: -3.09%
62 | Cc1cc(=O)oc2cc(OCC(=O)N/N=C/c3cc([N+](=O)[O-])ccc3O)ccc12 | inconclusive: 28.2 µM [inhibitor, single point] | –
63 | O=C(CSc1nc2c(sc3ccccc32)c(=O)n1CCCN1CCCC1)NCc1ccco1 | inconclusive: 25.1 µM [inhibitor, partial curve] | –
64 | CCn1c(CNc2ccc(Cl)cc2)nnc1SCC(=O)OC1CCCCC1 | – | inactive: 15.3%
65 | COc1ccc(/C=C/CN2CCC(CO)(Cc3ccccc3Cl)CC2)cc1 | – | inactive: -4.26%
66 | Cc1onc(-c2c(F)cccc2Cl)c1-c1nnc(-c2ccc(C(F)(F)F)cc2)o1 | inconclusive: 39.8 µM [inhibitor, single point] | –
67 | CS(=O)(=O)N(CC(=O)NCCSCc1c(F)cccc1Cl)c1cccc([N+](=O)[O-])c1 | – | inactive: 1.93%
68 | CCc1nc(Sc2nnnn2-c2ccccc2)c2c3c(sc2n1)CCCC3 | inconclusive: 35.5 µM [inhibitor, single point] | –
69 | O=C(c1cccs1)N1C(=O)c2cccc3cccc1c23 | inconclusive: 39.8 µM [inhibitor, single point] | –
70 | Cc1[nH]c2ccccc2c1/C=C/c1nc2ccccc2c(=O)[nH]1 | – | inactive: -12.5%
71 | [O-]/C(=C(\C(=S)Nc1cccc2ccccc12)[n+]1ccccc1)c1ccc2c(c1)OCCO2 | inconclusive: 14.1 µM [inhibitor, partial curve] | –
72 | Nc1nnc(-c2ccccc2F)s1 | inconclusive: 28.2 µM [inhibitor, partial curve] | –
